# Hit rate of the full screen: of about 270,000 compounds, about 620 (0.23%) were called active. The inconclusive results got no clear call from the source; some entries with a clear call stand among them for comparison. Calls come from the whole dose curve; as a rule, active = well fitted inhibition curve with a large enough effect in the polarisation, with a control signal flat (not every such curve was filed as active); inconclusive = small, poorly fitted or top-dose-only effect, or effect the other way, or a change in a side signal; inactive = no such curve, though single readings can be large or run the other way; the % refers to the polarisation. Where the call is inconclusive, the potency comes from a doubtful curve fit. A note “side channel” means that the fit belongs to a control or component signal, not to the main read-out.
# Molecular target: Menin (Homo sapiens) (UniProt O00255)
# Sequence of UniProt O00255 (O00255 whole entry, looked up): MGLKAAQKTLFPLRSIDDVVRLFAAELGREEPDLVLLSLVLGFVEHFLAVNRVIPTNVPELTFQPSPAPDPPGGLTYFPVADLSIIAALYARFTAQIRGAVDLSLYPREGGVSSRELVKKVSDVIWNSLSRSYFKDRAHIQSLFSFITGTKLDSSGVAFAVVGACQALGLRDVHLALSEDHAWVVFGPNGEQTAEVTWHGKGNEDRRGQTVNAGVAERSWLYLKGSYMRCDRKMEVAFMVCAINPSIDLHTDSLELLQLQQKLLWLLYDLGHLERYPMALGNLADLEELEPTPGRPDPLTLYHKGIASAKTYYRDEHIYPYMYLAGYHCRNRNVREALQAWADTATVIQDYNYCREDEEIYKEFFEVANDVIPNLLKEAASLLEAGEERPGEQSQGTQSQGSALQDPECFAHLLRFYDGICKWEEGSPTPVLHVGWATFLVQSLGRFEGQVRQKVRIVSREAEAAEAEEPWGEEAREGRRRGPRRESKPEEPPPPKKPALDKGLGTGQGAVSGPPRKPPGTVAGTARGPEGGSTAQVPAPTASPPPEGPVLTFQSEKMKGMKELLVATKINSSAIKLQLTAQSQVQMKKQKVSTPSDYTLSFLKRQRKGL
# Assay: qHTS Assay for Inhibitors Targeting the Menin-MLL Interaction in MLL Related Leukemias: Competition With Texas Red Labeled MLL-derived Mutant Peptide
# Conditions: fluorescence polarization; series mostly up to 61.6 µM
# Potency is the fitted concentration of half-maximal effect; tags give direction and shape of the fitted curve or compound fluorescence and quenching.
row,SMILES,Potency
1,COc1ccc(-c2cc(C(F)F)n3ncc(C(=O)Nc4ccc(C(=O)N5CCOCC5)cc4)c3n2)cc1,"inconclusive: 2.82 µM [fluorescent, side channel, partial curve]"
2,CCOC(=O)C(C)n1nc(C)c2sc3ccccc3c2c1=O (centres undefined),"inconclusive: 2 µM [inhibitor, partial curve]"
3,O=C(CCn1c(=O)c2ccccc2n(Cc2ccccc2)c1=O)NCc1ccc2c(c1)OCO2,"inconclusive: 12.6 µM [fluorescent, side channel, partial curve]"
4,Cc1cc(C(=O)N/N=C/c2cc([N+](=O)[O-])ccc2O)c2ccccc2n1,"inconclusive: 1.78 µM [quencher, side channel, full curve]"
5,O=C(Nc1sc2c(c1C(=O)O)CCCCC2)c1ccccc1F,"inconclusive: 12.6 µM [quencher, side channel, partial curve]"
6,CN(C)c1cc2c(c(N(C)C)c1)C(=O)c1ccccc1C2=O,"inconclusive: 1.12 µM [quencher, side channel, full curve]"
7,O=C(Nc1ccc(Cl)c(-c2nc3ccccc3[nH]2)c1)c1ccc2c(c1)OCO2,"inconclusive: 39.8 µM [inhibitor, single point]"
8,CN=C(Nc1cc(Cl)ccc1Cl)SC1CC(=O)N(c2ccc(C(=O)OC)cc2)C1=O (centres undefined),"inconclusive: 7.08 µM [quencher, side channel, partial curve]"
9,COC(=O)Nc1nc2ccc(Sc3ccccc3)cc2[nH]1,"inconclusive: 20 µM [inhibitor, single point]"
10,Oc1ccccc1N=Nc1ccccc1O,"inconclusive: 22.4 µM [quencher, side channel, single point]"
11,CCN1CCN(c2cc3nc(C)n(Cc4ccccc4)c(=O)c3cc2NC(=O)c2ccccc2F)CC1,"inconclusive: 15.8 µM [fluorescent, side channel, partial curve]"
12,O=C(CN1CCC(n2nnc3cc(F)ccc32)CC1)NNC(=O)c1ccccc1,"inconclusive: 39.8 µM [inhibitor, single point]"
13,O=C(CCC1CCCC1)N1CCC(N2CCCCCC2)CC1,"inconclusive: 31.6 µM [inhibitor, partial curve]"
14,O=[N+]([O-])c1cccc(N/N=C/c2ccc(N3CCOCC3)cc2)c1,"inconclusive: 14.1 µM [quencher, side channel, partial curve]"
15,O=[N+]([O-])c1cc(/C=N\Nc2nc(-c3ccccc3)cs2)ccc1O,"inconclusive: 15.8 µM [quencher, side channel, partial curve]"
16,CC(=O)Nc1nc(-c2cccc3ccccc23)cs1,inactive
17,CCOC(=O)Cc1cc(=O)n2[nH]cc(-c3cccc(Br)c3)c2n1,"inconclusive: 17.8 µM [quencher, side channel, partial curve]"
18,CCC1CCCCN1CCCNC(=O)CSc1nc2nc(C)c(Cc3ccc(C)cc3)c(C)n2n1 (centres undefined),"inconclusive: 12.6 µM [inhibitor, partial curve]"
19,NS(=O)(=O)c1ccc(CCNC(=O)c2ccc(NC3=NC4CS(=O)(=O)CC4S3)cc2)cc1 (centres undefined),inactive
20,CS(=O)(=O)c1ccc2c(c1)SC1=NC(=O)/C(=C/c3ccco3)C(=N)N12,"inconclusive: 14.1 µM [quencher, side channel, partial curve]"

row,SMILES,Potency
1,CCN1C(=O)/C(=C\c2cn(-c3ccccc3)nc2-c2cccnc2)SC1=S,"inconclusive: 12.6 µM [inhibitor, partial curve]"
2,COc1ccc(C(=O)NC2CC2)cc1OC1CCN(Cc2ccc(SC)cc2)CC1,"inconclusive: 8.91 µM [inhibitor, partial curve]"
3,Cc1ccc(CNC(=O)CCC2CCCN(Cc3cccc4ncccc34)C2)o1 (centres undefined),"inconclusive: 35.5 µM [quencher, side channel, single point]"
4,COc1ccc(C(C(=O)NC(C)(C)C)N(C(=O)CCC(=O)Nc2cc(C)on2)c2ccc(C)c(C)c2)cc1 (centres undefined),"inconclusive: 10 µM [fluorescent, side channel, partial curve]"
5,CCc1nnc(NS(=O)(=O)c2ccc(Nc3ccc4nonc4c3[N+](=O)[O-])cc2)s1,"inconclusive: 20 µM [quencher, side channel, partial curve]"
6,COc1cc(CNC2CCCCC2)c(Br)cc1OC1CCCC1,"inconclusive: 2.24 µM [fluorescent, side channel, full curve]"
7,CCOC(=O)/C(C#N)=C/c1ccc(-c2ccsc2C(=O)OC)o1,inactive
8,c1ccc(-c2nc(NCc3cccs3)c3ccccc3n2)cc1,"inconclusive: 28.2 µM [quencher, side channel, single point]"
9,COc1ccc2cc(CN(Cc3ccco3)Cc3nnnn3C3CCCCC3)c(=O)[nH]c2c1,"inconclusive: 3.16 µM [fluorescent, side channel, single point]"
10,CN1/C(=C\C=C(C#N)C#N)C(C)(C)c2ccccc21,"inconclusive: 35.5 µM [fluorescent, side channel, single point]"
11,CC1N(C(=O)N(C)C)CCN1S(=O)(=O)c1ccccc1 (centres undefined),"inconclusive: 28.2 µM [inhibitor, single point]"
12,O=C(NC12CC3CC(CC(C3)C1)C2)c1ccc(Br)o1,"inconclusive: 6.31 µM [inhibitor, partial curve]"
13,COc1ccccc1CNC(=O)C(c1ccccc1)c1ccccc1,"inconclusive: 25.1 µM [fluorescent, side channel, single point]"
14,COc1cc(OC)c(C2CC(=O)N3CN(c4ccc(C)cc4)CSC3=C2C#N)cc1OC (centres undefined),inactive
15,CCOC(=O)N1CCN(c2cc(NCCC(=O)O)c3c4c(onc24)-c2ccccc2C3=O)CC1,"inconclusive: 25.1 µM [fluorescent, side channel, partial curve]"
16,Cc1ccc(OC(=O)C23CC4CC(CC(C4)C2)C3)c(C)n1,"inconclusive: 7.94 µM [fluorescent, side channel, partial curve]"
17,Cc1cc(C(=O)Nc2ccc(N3CCCC3)c(Cl)c2)ccc1[N+](=O)[O-],"inconclusive: 14.1 µM [quencher, side channel, partial curve]"
18,Oc1c(Br)cc(Br)cc1C=NCc1ccccc1,"inconclusive: 12.6 µM [quencher, side channel, partial curve]"
19,CC12CC(O)C3c4ccc(O)cc4CCC3C1CC/C2=N\O (centres undefined),"inconclusive: 35.5 µM [inhibitor, partial curve]"
20,Oc1ccc(/C=N/n2c(-c3ccco3)csc2=Nc2cccnc2)c(O)c1,"inconclusive: 7.08 µM [quencher, side channel, partial curve]"

row,SMILES,Potency
1,O=C1/C(=C\c2ccc(-c3ccccc3Cl)o2)SC(=S)N1CC1CCCO1 (centres undefined),"inconclusive: 22.4 µM [quencher, side channel, single point]"
2,COc1ccc(Nc2cc(Nc3cccc(OC)c3)ncn2)cc1,"inconclusive: 14.1 µM [quencher, side channel, partial curve]"
3,CCc1nnc(NC(=O)c2cnccn2)s1,"inconclusive: 39.8 µM [inhibitor, single point]"
4,CC(=O)Nc1ccc(S(=O)(=O)Oc2ccc(/C=C3\SC(N)=NC3=O)cc2)cc1,active: 14.1 µM
5,CC1(C)CC(=O)c2c(nc3ccccc3c2N)C1,inactive
6,Cc1ccc(NC(=O)Cn2cc(C=O)c3ccccc32)cc1,"inconclusive: 25.1 µM [inhibitor, single point]"
7,Cc1cccc(NC(=O)CSc2nnc(NC(=O)C3CC3)s2)c1C,"inconclusive: 39.8 µM [fluorescent, side channel, single point]"
8,Cc1cc(C)c(S(=O)(=O)Nc2ccc(-c3cn4ccccc4n3)cc2)c(C)c1,inactive
9,CCCCn1c(=O)[nH]c(=O)c2c1nc(-c1ccc([N+](=O)[O-])cc1)n2CC,"inconclusive: 39.8 µM [inhibitor, partial curve]"
10,Cc1ccc(OCCn2cc(C#N)c3ccccc32)cc1,inactive
11,Cc1[nH]n(-c2ncc(-c3ccc(Cl)cc3)s2)c(=O)c1C(c1ccc(Cl)cc1)C(C#N)C#N (centres undefined),"inconclusive: 31.6 µM [quencher, side channel, partial curve]"
12,Clc1ccc(Cn2c(-c3cccnc3Cl)nc3ccccc32)c(Cl)c1,"inconclusive: 2.51 µM [inhibitor, full curve, poor fit]"
13,COC(=O)c1sccc1NC(=O)Nc1cccc(F)c1,"inconclusive: 31.6 µM [quencher, side channel, single point]"
14,CCc1cccc(NS(=O)(=O)c2ccc3c(c2)CCC(=O)N3)c1,inactive
15,O=C1CCCN1c1ncc(S(=O)(=O)c2ccc([N+](=O)[O-])cc2)s1,"inconclusive: 20 µM [quencher, side channel, single point]"
16,COc1cc(/C=N/NC(=O)C2c3ccccc3Oc3ccccc32)ccc1O,active: 2.82 µM
17,CCOC(=O)c1c(C)n(C)c2ccc(OC)c(NC(=O)c3cccs3)c12,"inconclusive: 31.6 µM [inhibitor, partial curve]"
18,Cc1ccc(OCCOc2ccc(Br)cc2)c([N+](=O)[O-])n1,"inconclusive: 28.2 µM [quencher, side channel, single point]"
19,CC(C)(C)c1ccc(C(=O)NCCC(=O)NCc2ccco2)cc1,"inconclusive: 11.2 µM [quencher, side channel, partial curve]"

# Source: PubChem BioAssay AID1768 (National Center for Advancing Translational Sciences (NCATS), 2009)
